Data published in PubChem BioAssay (NCATS).
Inconclusive means that the source gave no clear call. Such entries were picked first, then a sample of the others. Potencies of inconclusive entries are doubtful fits and often do not repeat. Calls of active or inactive are those of the source. Calls follow the shape of the dose curve; as a rule, active = well fitted inhibition curve with a large enough effect; inconclusive = small, poorly fitted or top-dose-only effect; inactive = flat fitted curve, though single readings scatter.

What was measured:
HaCat = experiment: Cytotoxic Profiling of Annotated Libraries Using Quantitative High-Throughput Screening (AID 1296008); conditions: Five cell lines viability, CellTiter-Glo ATP luminescence, 48-72 h; max response: hits give low values; also: nearly all actives have a fitted effect of over 60% in size; as to max response: % is scaled to controls: 0 for no effect and ±100 for the full control effect
Summary of the method: (§1)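 Cytotoxicity was measured as CellTiter-Glo ATP luminescence, read after 10 min at room temperature. Compound treatment of the cells lasted 48 or 72 hr at 37 degrees Celsius in a qHTS format.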

KB-3-1 = experiment: as above; conditions: Five cell lines viability, CellTiter-Glo ATP luminescence, 48-72 h; max response: hits give low values
Summary of the method: as §1

[1] = Drug repurposing screens with cells derived from glioblastoma tumor samples (AID 1345199); conditions: GBM patient neurospheres viability, ATP luminescence, 48 h; Potency: tumour line A unless noted; series mostly up to 46 µM; also: nearly all actives have a fitted effect of over 40% in size
Summary of the method: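 Primary testing used CD133+ neurospheres from four GBM patients, seven concentrations, 48 h exposure and ATP-based viability; confirmation added three slower-growing patient lines.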

NIH3T3 = experiment: Cytotoxic Profiling of Annotated Libraries Using Quantitative High-Throughput Screening (AID 1296008); conditions: Five cell lines viability, CellTiter-Glo ATP luminescence, 48-72 h; max response: hits give low values; also: nearly all actives have a fitted effect of over 60% in size; as to max response: % is scaled to controls: 0 for no effect and ±100 for the full control effect
Summary of the method: as §1
Potency is read from the fitted curve at half-maximal effect; tags tell the direction and shape of the fitted curve.

CCS(=O)(=O)C(C)(C)S(=O)(=O)CC
Potency (HaCat): inconclusive: 1.06 µM [inhibitor, full curve]
max response (KB-3-1): inactive: 3.51%
Potency [1]: inconclusive: 20 µM [inhibitor, single point]

O=C1CN=C(c2cccc(Br)c2)c2oc3ccccc3c2N1
Potency (HaCat): inconclusive: 16.4 µM [inhibitor, partial curve, poor fit]
Potency (KB-3-1): inconclusive: 29.1 µM [inhibitor, single point]
Potency (NIH3T3): inconclusive: 23.1 µM [inhibitor, single point]

C[C@@]1(CO)[C@H](O)CC[C@@]2(C)[C@H]1CC[C@H]1C[C@@H]3C[C@@]12CC[C@]3(O)CO
Potency (HaCat): active: 9.04 µM
Potency (KB-3-1): inconclusive: 12.8 µM [inhibitor, single point]
Potency (NIH3T3): active: 6.4 µM
